Results published in the supplement of paper PMC9446081.
About 220 (0.56%) of roughly 39,000 compounds showed activity. Some of the results follow.
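Also: static incubation at 37 °C against the wild-type strain, values averaged over two biological replicates.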

The molecules below were run on Escherichia coli K-12 BW25113 (assay: relative growth (OD600 normalised to plate interquartile mean) (fraction); higher = less growth inhibition, active = 0.2 or less). Conditions: 50 µM; LB; incubation time: overnight (16-24 h).
In the case of `COc1ccc(S(=O)(=O)N(C)C[C@@H]2OCCCC[C@@H](C)Oc3ccc(NS(=O)(=O)c4ccc(Cl)cc4)cc3C(=O)N([C@@H](C)CO)C[C@@H]2C)cc1`, the relative growth is reported as inactive: 1.03.
`COc1ccc2c3c([nH]c2c1)[C@H](CO)N(C[C@]13CN(Cc2ccccc2Cl)C1)S(=O)(=O)c1cn(cn1)C` was tested, and the relative growth was inactive: 0.977.
For `COCC#Cc1ccc2c(c1)O[C@@H](CN(C)S(=O)(=O)c1ccc(OC)cc1)[C@H](C)CN([C@H](C)CO)S2(=O)=O`, the relative growth was inactive: 1.04.
With `C[C@H]1CN([C@@H](C)CO)C(=O)c2cc(NC(=O)Nc3ccc(C(F)(F)F)cc3)ccc2O[C@H]1CN(C)C(=O)Nc1cccc2ccccc12` the relative growth was inactive: 1.02.
For `C[C@@H]1CN([C@@H](C)CO)S(=O)(=O)c2ccc(/C=C/c3ccccc3)cc2O[C@@H]1CN(C)C(=O)CN1CCOCC1`, the relative growth was inactive: 1.02.
In the case of `Cc1ccc(S(=O)(=O)N(C)C[C@@H]2Oc3ccc(NC(=O)Cn4cnnn4)cc3CC(=O)N([C@H](C)CO)C[C@H]2C)cc1`, the relative growth is reported as inactive: 1.01.
In the case of `C[C@H](CO)N1C[C@H](C)[C@H](CN(C)C(=O)Nc2ccc3c(c2)OCO3)OCCCC[C@H](C)Oc2ccc(NS(=O)(=O)c3ccccc3)cc2C1=O`, the relative growth is reported as inactive: 1.04.
For `CCCCCCCCC=CCCCCCCCC(=O)[O-].[NH3+]CCO`, the relative growth was inactive: 0.665.
In the case of `CCNC(=O)C[C@H]1CC[C@@H](NC(=O)C2CCOCC2)[C@H](CO)O1`, the relative growth is reported as inactive: 0.992.
In the case of `C[C@H](CO)N1C[C@H](C)[C@@H](CN(C)S(C)(=O)=O)Oc2ccc(NC(=O)Nc3ccccc3)cc2CC1=O`, the relative growth is reported as inactive: 0.981.
With `COc1ccc(NC(=O)N(C)C[C@@H]2Oc3c(NC(=O)Nc4cccc5ccccc45)cccc3C(=O)N([C@H](C)CO)C[C@H]2C)cc1` the relative growth was inactive: 1.02.
`CC(C)(C)NC(=O)C1CCC2C3CCC4NC(=O)C=CC4(C)C3CCC12C` (centres undefined) was tested, and the relative growth was inactive: 1.1.
In the case of `C[C@H](CO)N1C[C@H](C)[C@H](CN(C)C(=O)Nc2ccc(C(F)(F)F)cc2)OCCCC[C@H](C)Oc2ccc(NS(=O)(=O)c3ccc(Cl)cc3)cc2C1=O`, the relative growth is reported as inactive: 1.
For `COc1ccc(CNC(=O)C[C@@H]2CC[C@H]3[C@H](COc4ccc(NC(=O)C(C)C)cc4C(=O)N3C)O2)cc1`, the relative growth was inactive: 0.982.
With `NCc1ccc(C(=O)N2CCCCC2)cc1` the relative growth was inactive: 1.01.
In the case of `c1coc(-c2nc3ccccc3n2CCC2CCCCC2)c1`, the relative growth is reported as inactive: 0.924.
With `CC(C)NC(=O)Nc1ccc2c(c1)C(=O)N([C@H](C)CO)C[C@@H](C)[C@H](CN(C)S(C)(=O)=O)OCCCC[C@@H](C)O2` the relative growth was inactive: 0.983.
In the case of `Cc1noc(C)c1NC(=O)N(C)C[C@@H]1Oc2ccc(NC(=O)Nc3ccc(C(F)(F)F)cc3)cc2CC(=O)N([C@@H](C)CO)C[C@H]1C`, the relative growth is reported as inactive: 0.973.
In the case of `C[C@@H]1CN([C@@H](C)CO)C(=O)Cc2cc(NC(=O)Nc3cccc4ccccc34)ccc2O[C@H]1CN(C)Cc1ccccc1`, the relative growth is reported as inactive: 1.02.
In the case of `C[C@H](CO)N1C[C@H](C)[C@H](CN(C)C(=O)Nc2ccccc2)Oc2ccc(NC(=O)Nc3cccc4ccccc34)cc2CC1=O`, the relative growth is reported as inactive: 1.03.
In the case of `C=CCc1c(C)[nH]c(N)nc1=O`, the relative growth is reported as inactive: 1.
In the case of `Cc1cc2nc3c(=O)[nH]c(=O)nc-3n(CC(O)C(O)C(O)COP(=O)([O-])O)c2cc1C.[Na+]` (centres undefined), the relative growth is reported as inactive: 0.99.
`C[C@@H]1CN([C@@H](C)CO)C(=O)c2cccc(NC(=O)Nc3ccc4c(c3)OCO4)c2O[C@H]1CN(C)C(=O)Nc1ccc(C(F)(F)F)cc1` was tested, and the relative growth was inactive: 0.962.
`COc1ccc(C#Cc2ccc3c(c2)[C@]2(C(=O)N3)[C@H](c3ccc(OCCO)cc3)N3[C@H](c4ccccc4)[C@H](c4ccccc4)OC(=O)[C@H]3[C@@H]2C(=O)NC[C@H](O)c2ccccc2)cc1` was tested, and the relative growth was inactive: 1.1.
`C[C@@H]1CN([C@H](C)CO)S(=O)(=O)c2ccc(C#C[C@@H](C)O)cc2O[C@H]1CN(C)C(=O)c1ccncc1` was tested, and the relative growth was inactive: 1.02.
With `COc1ccc(S(=O)(=O)N(C)C[C@@H]2Oc3c(NC(=O)C4CC4)cccc3C(=O)N([C@H](C)CO)C[C@@H]2C)cc1` the relative growth was inactive: 1.01.
In the case of `C[C@H](CO)N1C[C@H](C)[C@@H](CN(C)C(=O)Nc2ccc(F)cc2)Oc2cc(C#CC3(O)CCCC3)ccc2S1(=O)=O`, the relative growth is reported as inactive: 1.02.
In the case of `O.O.OCC1OC(OC2OC(CO)C(O)C(O)C2O)C(O)C(O)C1O` (centres undefined), the relative growth is reported as inactive: 1.12.
With `C[C@H](O)C#Cc1cnc2c(c1)C(=O)N([C@H](C)CO)C[C@@H](C)[C@@H](CN(C)C(=O)Nc1ccc(C(F)(F)F)cc1)O2` the relative growth was inactive: 0.987.
For `C[C@H]1CCCCO[C@@H](CN(C)C(=O)NC2CCCCC2)[C@@H](C)CN([C@@H](C)CO)C(=O)c2cc(NC(=O)Nc3ccc(C(F)(F)F)cc3)ccc2O1`, the relative growth was inactive: 1.03.
For `C[C@@H]1CN([C@H](C)CO)C(=O)c2cc(NS(=O)(=O)c3ccc(Cl)cc3)ccc2O[C@@H](C)CCCCO[C@H]1CN(C)C(=O)C1CCCCC1`, the relative growth was inactive: 1.01.
In the case of `C[C@@H]1CCCCO[C@@H](CN(C)Cc2ccc(C(F)(F)F)cc2)[C@@H](C)CN([C@H](C)CO)C(=O)c2cc(NC(=O)Cc3ccccc3)ccc2O1`, the relative growth is reported as inactive: 1.03.
In the case of `CCC(=O)N[C@@H]1CC[C@H](CC(=O)OC)O[C@@H]1CO`, the relative growth is reported as inactive: 1.
In the case of `CC(C(=O)O)c1ccc2c(c1)[nH]c1ccc(Cl)cc12` (centres undefined), the relative growth is reported as inactive: 1.11.
With `Cc1noc(C)c1S(=O)(=O)N(C)C[C@H]1Oc2ccc(NC(=O)CCN3CCOCC3)cc2CC(=O)N([C@H](C)CO)C[C@H]1C` the relative growth was inactive: 1.01.
With `C[C@@H](NC(=O)C[C@@H]1CC[C@H](NC(=O)CN2CCOCC2)[C@H](CO)O1)c1ccccc1` the relative growth was inactive: 1.03.
For `Cc1noc(C)c1S(=O)(=O)Nc1ccc2c(c1)C(=O)N([C@@H](C)CO)C[C@@H](C)[C@H](CN(C)Cc1ccncc1)O2`, the relative growth was inactive: 0.993.
`Cl.c1ccc(CC2=NCCN2)cc1` was tested, and the relative growth was inactive: 0.98.
With `C[C@@H]1CN([C@@H](C)CO)C(=O)Cc2cc(NS(=O)(=O)c3cccs3)ccc2O[C@@H]1CN(C)Cc1ccc(Oc2ccccc2)cc1` the relative growth was inactive: 0.771.
